Experimental data published in the domain aggregation screens of Martell et al. (2025).

Experiment: soluble fraction after stress (log2 fold change); higher = more stays soluble; pooled small domains, quantitative proteomics
Conditions: stress: 75 degC
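Further: 20 min heating vs room temperature control held 20 min.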

| Sequence | soluble fraction (log2) |
| --- | --- |
| HMEETALAIGREVGYPVIIKAAGGGGGRGMRVVRNEAELAAAIALTKSEAGQFFKNDMVYMEKYL | 0.219 |
| HMEGHVLRSPMVGTFYASSAPDKPAFVSVGQQVKEGETLAIIEAMKMFNPIEADKSGTIVAILG | 0.635 |
| HMRRLQTIVYEKGLASTIKQARQMITHGHIFMNGHRVTVPGYLVTRAEESSIEFNPASPFTDEMHPM | -2.07 |
